{"source": "PubChem BioAssay AID1347417", "about": "(National Center for Advancing Translational Sciences (NCATS), 2020)", "note": "Screen size: about 120,000 compounds; about 5,300 (4.4%) were called active. Inconclusive results, whose numbers are uncertain, are shown with a selection of clear calls. Calls come from the whole dose curve; as a rule, active = well fitted inhibition curve with a large enough effect; inconclusive = small, poorly fitted or top-dose-only effect; inactive = no such curve, though single readings can be large or run the other way. A potency beside an inconclusive call is a rough fit, not a confirmed value. Potency is the fitted concentration of half-maximal effect; tags give direction and shape of the fitted curve."}
{"test": "qHTS Primary assay for Inhibitors of Plasmodium falciparum Dd2 growth in vitro; note: nearly all actives have a fitted effect of over 65% in size", "settings": "P. falciparum Dd2 growth, SYBR Green, 72 h; series mostly up to 28.9 µM", "outline": "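Readout: SYBR Green fluorescence, 485 nm excitation, 535 nm emission, after ~16 h lysis at 37C. Before that, Dd2-infected red cells (2.5% hematocrit) grew 72 h with compound, 29 uM top final concentration.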"}
{"smiles": "Cc1ccc(CNC(=O)c2ccc(-n3c(C)cc4c3CCCC4)cc2)cc1", "Potency": "inconclusive: 12.6 µM [inhibitor, single point]"}
{"smiles": "COCCN1CCC2(C1)CN(C)c1ccc(C(=O)Nc3ccc(OC)cc3)cc12", "note": "(stereo unspecified)", "Potency": "inactive"}
{"smiles": "CC(C)(Oc1nn(CCN2CCOCC2)c2ccccc12)C(=O)NCc1ccccc1", "Potency": "active: 11.2 µM"}
{"smiles": "Cc1ccc(N2CCC(NC(=O)c3ccccc3F)C2=O)cc1", "note": "(stereo unspecified)", "Potency": "inactive"}
{"smiles": "CCOc1ccc(N(c2nc(-c3ccc(OC)c(OC)c3)no2)c2nc(-c3ccc(OC)c(OC)c3)no2)cc1", "Potency": "inactive"}
{"smiles": "CCOC(=O)c1cnc2ccc(C)cc2c1Nc1ccc(OCc2ccccc2Cl)cc1", "Potency": "inconclusive: 17.8 µM [inhibitor, single point]"}
{"smiles": "CC1(C)CC2CC(C)(CN2C(=O)CC(c2ccccc2Cl)c2c[nH]c3ccccc23)C1", "note": "(stereo unspecified)", "Potency": "inconclusive: 20 µM [inhibitor, single point]"}
{"smiles": "CCCN(CCO)C(=O)CC1C(=O)NCCN1C1Cc2ccccc2C1", "note": "(stereo unspecified)", "Potency": "inactive"}
{"smiles": "Cc1cc(NC(=O)N2C[C@@H](F)C[C@H]2C(=O)N2CCCCC2)ccc1Br", "Potency": "inactive"}
{"smiles": "CCC(=O)N1N=C(c2ccc(OC)cc2)CC1c1cn(-c2ccccc2)nc1-c1cccs1", "note": "(stereo unspecified)", "Potency": "active: 11.2 µM"}
{"smiles": "Cc1ccc(-c2nnc(C3CN(C(=O)c4cc(F)ccc4F)CC34CCOCC4)o2)cc1", "note": "(stereo unspecified)", "Potency": "inconclusive: 10 µM [inhibitor, single point]"}
{"smiles": "CC(C)(C)c1ccc(-c2cc(C[C@H]3CNCC[C@H]3CC(=O)Nc3nccs3)no2)cc1", "Potency": "inconclusive: 2.24 µM [inhibitor, full curve, poor fit]"}
{"smiles": "Clc1ccc(Oc2cccc(CN3CCN(C4CCNC4)CC3)c2)cc1", "note": "(stereo unspecified)", "Potency": "inconclusive: 5.01 µM [inhibitor, partial curve, poor fit]"}
{"smiles": "COc1ccc(OC)c(NC(=O)N2CCN(S(=O)(=O)c3ccc4c(ccn4C)c3)CC2)c1", "Potency": "inconclusive: 5.62 µM [inhibitor, partial curve, poor fit]"}
{"smiles": "COc1ccc(-c2ccc3ncc(Nc4cnccn4)n3n2)cc1OC", "Potency": "inconclusive: 5.62 µM [inhibitor, single point]"}
{"smiles": "CCNC(=O)Nc1ccc(OCC(=O)N2CCC(C)CC2)nc1", "Potency": "inactive"}
{"smiles": "c1ccc(CCCN2Cc3[nH]cnc3C[C@H]2c2nc(-c3cnccn3)no2)cc1", "Potency": "inconclusive: 14.1 µM [inhibitor, single point]"}
{"smiles": "CCc1noc(-c2cccn3c(CNC(=O)Cc4ccccc4Cl)nnc23)n1", "Potency": "inconclusive: 3.16 µM [inhibitor, partial curve]"}
{"smiles": "COc1cc(OC)cc(C(=O)Nc2ccc3nc(N4CCCCC4)cc(C)c3c2)c1", "Potency": "inconclusive: 1.26 µM [inhibitor, single point]"}
{"smiles": "O=C(COc1ccc(F)cc1)NC1CCN(c2cn[nH]c(=O)c2)CC1", "Potency": "inconclusive: 7.94 µM [inhibitor, single point]"}
{"smiles": "CC(C)(C)OC(=O)N1CC(NCc2ccc(-c3ccc(OC(F)(F)F)cc3)cc2)C1", "Potency": "active: 10 µM"}
{"smiles": "CC(=O)N[C@@H]1CN(C(=O)c2cnc3ccccc3c2)C[C@H]1c1ccc(C)cc1", "Potency": "inconclusive: 8.91 µM [inhibitor, single point]"}
{"smiles": "CCc1nc2c(c(-c3ccc(OC)cc3)n1)CCN(C(=O)c1ccc(C)cc1)CC2", "Potency": "inconclusive: 10 µM [inhibitor, single point]"}
{"smiles": "O=C1[C@@H]2C[C@@H](O)CN2C2(CN(C3CCOCC3)C2)C(=O)N1Cc1ccccc1Cl", "Potency": "inactive"}
{"smiles": "COc1ccc(OC)c(NC(=O)Cn2c(=O)n(Cc3ccccc3)c(=O)c3ccccc32)c1", "Potency": "inconclusive: 15.8 µM [inhibitor, single point]"}
{"smiles": "Cc1cc2nc3n(c(=O)c2n1CC(=O)NC1CCC(C)CC1)CCCCC3", "note": "(stereo unspecified)", "Potency": "inconclusive: 20 µM [inhibitor, single point]"}
{"smiles": "Clc1ccc(-c2cnc3n2C[C@H](CNC2CCCC2)OC3)cc1", "Potency": "inconclusive: 5.62 µM [inhibitor, full curve, poor fit]"}
{"smiles": "CCCC(=O)N1CCc2nc(OCC)ccc2C1", "Potency": "inactive"}
{"smiles": "COc1cc(C)ccc1OCCSc1nc2ccc(NC(=O)c3ccc(F)cc3)cc2s1", "Potency": "inconclusive: 1.58 µM [inhibitor, full curve, poor fit]"}
{"smiles": "COc1ccc(C(=O)N2CCOCC3(CN(Cc4cc(F)cc(F)c4)C3)C2)c(OC)n1", "Potency": "inactive"}
{"smiles": "O=C(COc1ccccc1F)Nc1ccc(-c2nc3ccccc3s2)cc1", "Potency": "inactive"}
{"smiles": "CCOC(=O)c1c(C)oc2ncnc(Nc3ccc(OCC)cc3)c12", "Potency": "inactive"}
{"smiles": "COc1ccc(CCC(=O)NCCc2ncc(C)n2C2CCC2)cc1", "Potency": "inconclusive: 14.1 µM [inhibitor, partial curve, poor fit]"}
{"smiles": "Cc1ccc(C)c(N2C(=O)N(Cc3cc(=O)n4ccccc4n3)c3ccccc3S2(=O)=O)c1", "Potency": "inconclusive: 10 µM [inhibitor, single point]"}
{"smiles": "CCc1nc(-c2c3n(c(=O)n(CC(=O)Nc4cccc(C#N)c4)c2=O)CCCCC3)no1", "Potency": "inconclusive: 11.2 µM [inhibitor, partial curve, poor fit]"}
{"smiles": "CCC1CCCCN1CCCNC(=O)c1cc2c(Cl)nc3ccccc3c2s1", "note": "(stereo unspecified)", "Potency": "inconclusive: 3.98 µM [inhibitor, partial curve, poor fit]"}
{"smiles": "Cc1ccc(C)n1-c1nnc(N2CCCC(C(=O)Nc3ccc(C(C)C)cc3)C2)s1", "note": "(stereo unspecified)", "Potency": "inconclusive: 17.8 µM [inhibitor, single point]"}
{"smiles": "COc1ccc(Cc2ncc3c(n2)CN(C(=O)c2ccc(Cl)c(C)c2)C3)cc1", "Potency": "inconclusive: 10 µM [inhibitor, partial curve]"}
{"smiles": "COC(=O)c1ccccc1NC(=O)Cn1c(=O)n(Cc2ccc(C(=O)NCc3ccc4c(c3)OCO4)cc2)c(=O)c2ccccc21", "Potency": "inconclusive: 12.6 µM [inhibitor, single point]"}
{"smiles": "CC(=O)Nc1cc(NC(C)=O)cc(-c2nc3ccccc3[nH]2)c1", "Potency": "inconclusive: 8.91 µM [inhibitor, single point]"}
{"smiles": "CCN1CCN(C(=O)c2ccc3c(c2)n(Cc2cccc(F)c2)c(=O)c2ccnn23)CC1", "Potency": "inconclusive: 5.01 µM [inhibitor, partial curve, poor fit]"}
